± gives the standard deviation of the averaged measurements. Some of the results follow.
These sequences were tested on PfAP2-EXP AP2 domain (GST-tagged) (assay: gcPBM binding intensity (ln(normalized median fluorescence intensity)); higher = stronger DNA binding).
Outline: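 DNA-binding domains from P. falciparum, fused to GST and produced in E. coli, were put on an Agilent 4 × 180k double-stranded probe array for 1 h in 1× PBS holding 1% milk, 0.2 mg/ml BSA, 0.5% salmon testes DNA and 0.03% Triton X-100. Probes were primer-extended, 36 bp long and drawn from intergenic genomic regions, with negative controls included. After Alexa488 anti-GST antibody detection and a 488 nm scan, binding intensity was set as the highest Masliner-normalised natural-log median intensity across replicate spots of either probe orientation.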

Row | Sequence | gcPBM binding intensity (ln)
1 | AGATAAAAAAAGTACACACACACATATATTTATATA [CACACA_site7437] | 8.72 ± 0.54
2 | TTTTTTATTTTAAAAACATGCATAAAATATAATAGT [TGCATGCA_site762] | 8.94 ± 0.42
3 | ATATTATATATAAAATGTACATTTAAAAATATTATA [XGTACX_site889] | 8.46 ± 0.45
4 | ATACACACTTAAAAAAGTACTTAACTACATGAATTG [XGTACX_site1203] | 8.46 ± 0.49
5 | TAATCATAACTTGATACGCACACGTTATATAAATAA [CACACA_site1579] | 8.37 ± 0.4
6 | TATTTATTTATGGACACACATACAAATCTTCCAGAC [CACACA_site942] | 8.7 ± 0.39
7 | TTGTTTTCTTATTATTACTACAATACTTAAGTCAGA [TGCATGCA_negctrl_site184] | 8.69 ± 0.33
8 | TTTTTTATTTTGTGCACACACATAAAAATATATATA [CACACA_site761] | 8.97 ± 0.092
9 | TTTTTTTTTTTTTAAACATGCATAATAAATATAATA [TGCATGCA_site265] | 8.42 ± 0.31
10 | TTTTGTTGGATACAAAAATTACAAATTATTTAAAAA [TGCATGCA_negctrl_site532] | 8.12 ± 0.42
11 | GAATACATAATAACATGTACACACATTCTTCTATAA [XGTACX_site8725] | 8.6 ± 0.32
12 | TATATATATAGAAATGCATGTTAATAAAAGTTATAA [TGCATGCA_site947] | 9.11 ± 0.12
13 | TATCATAAAAAATATACACACAAAGGATATTTATAT [CACACA_site6841] | 8.54 ± 0.35
14 | TATGAACACCAACACACACACAAAAAAAAAAAAAAA [CACACA_site2013] | 8.18 ± 0.6
15 | ATAATTATTCTTATGGTGCACTGAATATACATGTTG [GTGCAC_site9760] | 9.23 ± 0.071
16 | CAAAAATATATTTTTTGTACACAAAAAAAAAATAAA [XGTACX_site5229] | 8.43 ± 0.54
17 | ATAGCACATTTTTAAGCACACGTTTATTATATATAT [CACACA_site6084] | 8.91 ± 0.17
18 | AAATACATATCATGTAGTACATATATATGTAGGTTA [XGTACX_site5392] | 8.54 ± 0.4
19 | AAAACTATTAAATGTAGTACATAATTATTGAAATAA [XGTACX_site8716] | 8.52 ± 0.37
20 | CTTATATATTGGGATAGTACTTTTAACTAAATAGAA [XGTACX_site5900] | 8.35 ± 0.29
21 | TGTTGTATTTTTACAACACACATTTAATCCATTTAA [CACACA_site1507] | 8.18 ± 0.35
22 | ACTTTACGAATTAAGAGTACTTATTTAAGGAACACT [XGTACX_site7919] | 8.52 ± 0.37
23 | TTTTTTTGCTCTTTTTATATATATATATATATATAT [GTGCAC_negctrl_site70] | 10.2 ± 0.46

Row | Sequence | gcPBM binding intensity (ln)
24 | TTTTTATTGAGATACTTATATAATTTTATGAATAAA [XGTACX_negctrl_site311] | 8.05 ± 0.34
25 | TTTGAAAAGTTGAAATGTACACATTTACACATATTT [XGTACX_site1641] | 8.32 ± 0.18
26 | ATCAACATTATGGTTAGTACTTAGTGAATTGTTAAT [XGTACX_site4926] | 8.46 ± 0.45
27 | TTATACACCTTTCATTGTACATATAATTTATATTCT [XGTACX_site8685] | 8.95 ± 0.33
28 | GTGTAATATATTTTTCGTACATATTATATATATATA [XGTACX_site1675] | 9.8 ± 0.37
29 | TCTTCTAATTTACCTACACACAGGAGATATATAAAT [CACACA_site6276] | 8.66 ± 0.48
30 | GTTCATAAATTAAACACACACACACCCCTGGATACC [CACACA_site3331] | 9.41 ± 0.59
31 | TAATTAATTTATTAGTTGCACTGTACCATTAGAGTA | 8.54 ± 0.26
32 | TATATATATATATATTGTACAAAATATTTATATGTT [XGTACX_site436] | 10.1 ± 0.37
33 | TATATTACTTTGTGTTGTACGGAAATATATATATAT [XGTACX_site4309] | 9.7 ± 0.28
34 | AATATTCAATATATATATATATATAATATTAATATA [GTGCAC_negctrl_site571] | 8.21 ± 0.34
35 | AAGGATTTTTTATACACACACTAACTAATGTATATA [CACACA_site7163] | 8.27 ± 0.35
36 | TAATACCATAACAAGTGTACATAAATAATTATTGTA [XGTACX_site4949] | 8.8 ± 0.44
37 | ATATTTTATTTAATTACACACAATATTGCAATTTGT [CACACA_site669] | 8.88 ± 0.49
38 | TATACATAGAAACACACACACATATATATATATATA [CACACA_site2248] | 10.1 ± 0.29
39 | GTTTATTCTTTTTATACACACCTTATTTGATTAACA [CACACA_site4567] | 8.82 ± 0.4
40 | TTACTACTATATTATACACACATATATATATATATA [CACACA_site2621] | 10.3 ± 0.23
41 | TGTGAATAAATAAGCACACATAAACACATATATAAA [CACACA_site6114] | 8.89 ± 0.33
42 | TTAAAAGAAAAAATATGTACATATATTATATATATC [XGTACX_site7009] | 8.63 ± 0.29
43 | TTCTAATATTTTTGCACACTAAACAATAAATTTCCT [CACACA_site3944] | 8.885 ± 0.078
44 | TTTATTTATGTAGATACACACCCATGTTATATGGAG [CACACA_site9144] | 8.57 ± 0.48
45 | AGCAAAAATTAAATAAATAAATATATATATATATAT [TGCATGCA_negctrl_site449] | 10.2 ± 0.63

— the supplement of paper PMC11417369
